# Laboratory results as given in the supplement of paper PMC6206098.
# ± gives the uncertainty stated by the source. Shown are siRNA guide strands that differ only in the seed, positions 2 to 7.
# Legend:
# 3LL = test: cell viability relative to siNT1 control; higher = less toxic; conditions: concentration: 10 nM; 96 h; Mus musculus;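 also: Luminescence-based viability of cells reverse transfected in 384-well plates with lipid-complexed siRNAs built on a non-toxic 19mer backbone whose passenger strand carries 2′-O-methyl groups at positions 1 and 2, triplicates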
# H460 = test: cell viability relative to lipid-only control; HeyA8 human ovarian and H460 human lung cancer; M565 mouse liver and 3LL mouse lung cancer; siNT1 is a non-toxic control siRNA; higher = less toxic; conditions: concentration: 10 nM; 96 h; Homo sapiens
# Method: (§1)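 Arrayed screen of 4096 siRNA duplexes, each carrying one of all possible 6mer seeds at guide-strand positions 2-7 in a fixed neutral 19mer scaffold (constant flanks: U at position 1, then ACAUGUAAACCA, plus a 3' AA overhang). The passenger strand is 2'-O-methylated at positions 1-2 so only the guide strand loads into RISC. Duplexes were reverse-transfected at 10 nM with RNAiMAX in triplicate in 384-well plates; viability was read by CellTiter-Glo ATP content 96 h after transfection. Values are % viability normalised to lipid-only wells (HeyA8, H460, M565) or to siNT1 (3LL).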
# HeyA8 = test: as above; conditions: concentration: 10 nM; 96 h; Homo sapiens
# Method: as §1
# M565 = test: as above; conditions: concentration: 10 nM; 96 h; Mus musculus
# Method: as §1
# 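For cell viability relative to lipid-only control in this document: reverse lipid transfection in 384-well plates, in triplicate, of duplexes on a non-toxic 19mer backbone with passenger strand 2′-O-methylated at positions 1 and 2, luminescence viability read-out.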
Sequence,cell viability (3LL) [%],cell viability (H460) [%],cell viability (HeyA8) [%],cell viability (M565) [%]
UCCCUCCACAUGUAAACCAAA,42.3 ± 3.5,33 ± 5.5,33.6 ± 1.7,24.2 ± 10
UAAGAUGACAUGUAAACCAAA,80.7 ± 2.2,71.9 ± 15,85.9 ± 17,84 ± 8.1
UAAGCAAACAUGUAAACCAAA,83.9 ± 2.6,105 ± 15,84.1 ± 6.8,66.8 ± 3.8
UCGGGACACAUGUAAACCAAA,80.6 ± 11,47.6 ± 4.4,64.43 ± 0.62,22 ± 4.6
UAGCCGCACAUGUAAACCAAA,7.69 ± 0.92,21 ± 0.38,32.6 ± 0.58,5.33 ± 0.49
UUGUGCAACAUGUAAACCAAA,75.4 ± 4.7,92.2 ± 12,70.9 ± 6,82.1 ± 16
UAAACUUACAUGUAAACCAAA,121 ± 13,80.3 ± 16,108 ± 6.7,91.4 ± 16
UAUUUCGACAUGUAAACCAAA,98.4 ± 21,88.3 ± 13,95.3 ± 14,86.9 ± 5.3
UGUACGGACAUGUAAACCAAA,62.6 ± 11,57.9 ± 5.2,70.1 ± 10,50.8 ± 3.4
UAAGGGCACAUGUAAACCAAA,22.7 ± 2.5,46.7 ± 12,25.9 ± 5.5,8.51 ± 3.7
UCCGACUACAUGUAAACCAAA,101 ± 29,58.5 ± 17,71.2 ± 9.8,68.3 ± 20
UGUAUGCACAUGUAAACCAAA,56.9 ± 9.9,25.4 ± 1.8,10.4 ± 1.2,10.5 ± 2.5
UAUUGUAACAUGUAAACCAAA,110 ± 11,82.2 ± 23,96 ± 18,103 ± 9.7
UAGUCGUACAUGUAAACCAAA,48.7 ± 5.7,74.1 ± 11,32.2 ± 1.6,52.3 ± 2.8
UCUUAUCACAUGUAAACCAAA,92.7 ± 18,66.4 ± 5.4,76.9 ± 18,63.7 ± 16
UCAAUGAACAUGUAAACCAAA,87 ± 23,62.2 ± 5.1,85.4 ± 5.2,71.9 ± 10
UAUUGACACAUGUAAACCAAA,93.8 ± 18,61.8 ± 3.4,79.6 ± 5.2,47.3 ± 9
UUCACCAACAUGUAAACCAAA,82.8 ± 12,48.9 ± 5.7,92.8 ± 9.8,77.6 ± 8.3
UGGACACACAUGUAAACCAAA,44.2 ± 5.6,38 ± 1.5,74 ± 7.6,21.2 ± 3.2

Sequence,cell viability (3LL) [%],cell viability (H460) [%],cell viability (HeyA8) [%],cell viability (M565) [%]
UGGUUUUACAUGUAAACCAAA,96.2 ± 10,74 ± 9.6,119 ± 2.5,74 ± 8.4
UGAAACUACAUGUAAACCAAA,36.8 ± 7,43.2 ± 11,39.1 ± 2.3,55.6 ± 1.4
UCAGAGUACAUGUAAACCAAA,92 ± 10,54.7 ± 9.5,55 ± 7.3,29.4 ± 7.5
UCGACCCACAUGUAAACCAAA,54.7 ± 8.3,77.4 ± 15,69.2 ± 2.4,73.9 ± 2.9
UGUCAUAACAUGUAAACCAAA,91.7 ± 9.4,29.2 ± 4.8,82.6 ± 6.4,69.5 ± 16
UGCCAGUACAUGUAAACCAAA,14.4 ± 3.3,63.2 ± 4.7,32.9 ± 3,19.7 ± 3.8
UCUGCCUACAUGUAAACCAAA,54.6 ± 18,41.7 ± 2,50.8 ± 7.3,12.7 ± 2.4
UACGUAUACAUGUAAACCAAA,90 ± 10,80.2 ± 23,63.4 ± 7.5,89.4 ± 8
UUCGGCCACAUGUAAACCAAA,19.6 ± 7.2,36.5 ± 3.2,46.1 ± 3,45.1 ± 2.6
UUCUAGUACAUGUAAACCAAA,41.7 ± 10,49.4 ± 5,60.2 ± 1.6,21.8 ± 4.8
UGCCUGUACAUGUAAACCAAA,38.3 ± 7.3,19.1 ± 0.85,2.98 ± 0.49,36.6 ± 0.65
UGGCACCACAUGUAAACCAAA,20.7 ± 2.9,15.3 ± 4.6,9.55 ± 1.2,29.8 ± 10
UGGACCAACAUGUAAACCAAA,45.1 ± 6.8,66.8 ± 13,76.1 ± 12,8.31 ± 1.7
UUCGCGGACAUGUAAACCAAA,108 ± 13,90.2 ± 5.8,93.5 ± 13,81.9 ± 7.3
UCAAUGUACAUGUAAACCAAA,75.5 ± 19,64.9 ± 2.2,62.6 ± 6.1,43.6 ± 6.6
UGGCCUUACAUGUAAACCAAA,70.7 ± 12,55.5 ± 5.6,25 ± 1.3,19.2 ± 3.2
UGGAGUCACAUGUAAACCAAA,13.3 ± 3.7,27.1 ± 5,11.1 ± 1,15.9 ± 2.3
UCGUGAAACAUGUAAACCAAA,93.1 ± 13,85.1 ± 8,88.7 ± 2.2,56.5 ± 3
UUGGUAGACAUGUAAACCAAA,52.7 ± 5.1,45.7 ± 3.1,55.6 ± 4.1,84.3 ± 9.1

Sequence,cell viability (3LL) [%],cell viability (H460) [%],cell viability (HeyA8) [%],cell viability (M565) [%]
UCUGGCAACAUGUAAACCAAA,97.8 ± 17,73.9 ± 7.6,82.9 ± 5.6,35.9 ± 7.6
UUUGCACACAUGUAAACCAAA,65.1 ± 8.8,60.9 ± 0.96,72.8 ± 5.5,52.9 ± 4.2
UGGCAAGACAUGUAAACCAAA,75.3 ± 8.4,44.1 ± 3.1,32.1 ± 0.8,30.9 ± 1.3
UGUUACUACAUGUAAACCAAA,95 ± 6,38.6 ± 4,16.5 ± 1.1,40.9 ± 10
UCUUAUGACAUGUAAACCAAA,91.6 ± 14,55.7 ± 2,84.4 ± 8.1,78 ± 8.7
UUCCUAAACAUGUAAACCAAA,78.8 ± 21,74.5 ± 9.7,108 ± 12,110 ± 12
UCCAGCGACAUGUAAACCAAA,98.8 ± 26,68.1 ± 12,78.2 ± 6.3,65.2 ± 12
UAACGCAACAUGUAAACCAAA,93.8 ± 13,69.2 ± 2.3,95.7 ± 9.4,73.9 ± 11
UCGAUCUACAUGUAAACCAAA,96.5 ± 22,74 ± 6.7,81.4 ± 4.5,72.8 ± 9.5
UGAAGUGACAUGUAAACCAAA,88.1 ± 18,74.7 ± 13,65.2 ± 5.1,38.6 ± 5.3
UACUGGGACAUGUAAACCAAA,55.5 ± 5.7,68.8 ± 5,5.01 ± 0.49,34.7 ± 2
UAGCACCACAUGUAAACCAAA,53.2 ± 5,47.8 ± 2.9,72.9 ± 4.2,38.8 ± 3.2
UGAAUUCACAUGUAAACCAAA,62.2 ± 16,50.7 ± 1.5,40 ± 3.4,11.9 ± 1.8
UCCGGCAACAUGUAAACCAAA,109 ± 13,61.8 ± 6.2,56 ± 5.2,89 ± 17
UAAUUAGACAUGUAAACCAAA,110 ± 11,90.7 ± 0.92,82.6 ± 7.6,79.1 ± 17
UAGCCCCACAUGUAAACCAAA,61.1 ± 13,66.4 ± 9,72 ± 5.7,25.6 ± 9.9
UAGUGAGACAUGUAAACCAAA,67.7 ± 5.6,38.6 ± 8.3,67.5 ± 2.8,43.9 ± 8
UUUUACAACAUGUAAACCAAA,91.2 ± 3.8,65.2 ± 1.6,98.3 ± 9.2,91.5 ± 7.8
UGUAUACACAUGUAAACCAAA,93.1 ± 6.4,71.7 ± 5.2,76.9 ± 9.6,75.9 ± 4.2
